# Measurements: PubChem BioAssay AID686979 (National Center for Advancing Translational Sciences (NCATS), 2013)
# The whole screen tested about 420,000 compounds, of which about 50,000 (12%) were called active. Inconclusive results, whose numbers are uncertain, are shown with a selection of clear calls. Calls follow the shape of the dose curve; as a rule, active = well fitted inhibition curve with a large enough effect; inconclusive = small, poorly fitted or top-dose-only effect; inactive = flat fitted curve, though single readings scatter. No potency is given beside an inconclusive call; the fits are too rough.
# Assay: qHTS for Inhibitors of human tyrosyl-DNA phosphodiesterase 1 (TDP1): qHTS in cells in presence of CPT; also: nearly all actives have a fitted effect of over 55% in size
# Settings: chicken DT40 Tdp1-/-;hTDP1 cells + 20 nM CPT, ATP luminescence, 48 h; activity change, negative = growth inhibition: at 46.2 µM (top of the series)
# Summary of the method: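 Chicken DT40 Tdp1-/- cells stably complemented with human TDP1 were seeded at 400 cells/well in medium containing 20 nM camptothecin, exposed to pin-transferred compounds, and grown at 37 °C for at least 48 hr. Viability was read as ATP luminescence.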
# % is scaled to controls: 0 for no effect and ±100 for the full control effect; potency is read from the fitted curve at half-maximal effect; tags tell the direction and shape of the fitted curve.
Structure (SMILES),Potency,"activity change, negative = growth inhibition"
COc1ccc(NC(=O)CCc2c(C)nc3nc(CNC(=O)OC(C)(C)C)nn3c2C)cc1OC,inactive,
Cn1c(=O)c2ccccc2n(Cc2cccc(F)c2)c1=O,,inconclusive: -31% [inhibitor]
O=C(Nc1ccc(Cl)c(C(F)(F)F)c1)NC1CC2CCCC(C1)N2C1CC1 (configuration not stated),active: 11.2 µM,
CCC(C)n1c(-c2cccs2)nc2nc3ccccc3nc21 (configuration not stated),active: 18.4 µM,
COc1ccc(-c2onc(C)c2-c2cnn(-c3ccccc3)c2)c(O)c1,"inconclusive [inhibitor, single point]",
COc1cc2c(c(O)c1OC)-c1c(cc(OC)c(OC)c1OC)C[C@@H](C)[C@@H](C)C2,"inconclusive [inhibitor, single point]",
CC(=O)N1CCCC1c1nc2ccccc2n1Cc1ccccc1C (configuration not stated),"inconclusive [inhibitor, single point]",
C/C(N)=C(/C#N)C(=O)CSc1nc2ccccc2c(=O)n1-c1ccccc1C,"inconclusive [inhibitor, single point]",
COc1ccc(NC(=O)CCS(=O)(=O)c2ccc(Br)s2)cc1,"inconclusive [inhibitor, partial curve]",
Cc1sc2ncn(CC(=O)NCCCC(=O)N(C)Cc3ccccc3)c(=O)c2c1C,"inconclusive [inhibitor, single point]",
CC1CCN(S(=O)(=O)c2ccc3c(ccn3CCC(=O)NCc3ccc(N(C)C)cc3)c2)CC1,"inconclusive [inhibitor, single point]",
CCNC(=S)NNC(=O)c1cc(-c2ccc(OCC)cc2)nc2ccccc12,active: 5.01 µM,
Cc1ccc2cc(C=O)c(Cl)nc2c1,"inconclusive [inhibitor, single point]",
COc1ccccc1S(=O)(=O)N(C)C[C@H]1Oc2cc(C#CCC3CCCC3)ccc2S(=O)(=O)N([C@H](C)CO)C[C@H]1C,active: 13 µM,
COc1ccc(-c2cc(C(=O)N3CCc4ccccc4C3)no2)cc1OC,"inconclusive [inhibitor, single point]",
c1ccc(-c2nc3nc4ccccc4nc3n2Cc2ccco2)cc1,"inconclusive [inhibitor, single point]",
COc1ccc(NC(=O)Nc2ccc3c(c2)C(=O)N([C@H](C)CO)C[C@@H](C)[C@@H](CN(C)C(=O)C2CCCCC2)OCCCC[C@H](C)O3)cc1,"inconclusive [inhibitor, single point]",
CNC(C)C(=O)NC(C(=O)N1CCCC1C(=O)NNc1ccccc1)C(C)C (configuration not stated),inactive,
CCS(=O)(=O)N1CCC(C(=O)O)CC1,inactive,
COc1ccc(NC(=O)CCN2C(=O)[C@@H]3[C@H](C2=O)[C@H]2C=C[C@@H]3C2)cc1,"inconclusive [inhibitor, single point]",
COc1ccc(S(=O)(=O)N2CCSC2c2ccc(OC)c(OC)c2)cc1 (configuration not stated),"inconclusive [inhibitor, single point]",

Structure (SMILES),Potency,"activity change, negative = growth inhibition"
Cc1ccc(C)c2c1CCC(=Cc1ccccc1[N+](=O)[O-])C2=O,"inconclusive [inhibitor, single point]",
Cc1ccc(-n2cc(CNC(C)Cn3cncn3)c(-c3ccc(F)cc3)n2)cc1 (configuration not stated),"inconclusive [inhibitor, single point]",
O=C(OCCN1C(=O)c2ccccc2C1=O)[C@@H]1CC(O)CN1S(=O)(=O)c1ccccc1[N+](=O)[O-] (some centres not stated),inactive,
Cc1sc(-n2c(C)cc(/C=C3\SC(=S)NC3=O)c2C)c(C#N)c1C,"inconclusive [inhibitor, single point]",
CC(=O)N(O)c1ccc(C=Cc2ccccc2)cc1,active: 2.06 µM,
COc1cc(NC(=O)CC(C)n2nc(C)cc2C)cc(OC)c1 (configuration not stated),inactive,
CCS(=O)(=O)N1CCc2cc(C(=O)NCCc3ccc(OC)cc3)ccc21,"inconclusive [inhibitor, partial curve]",
CC1CCN(S(=O)(=O)c2nnc(NC(=O)c3cccc(Br)c3)s2)CC1,"inconclusive [inhibitor, partial curve]",
CCOc1ccc(NC(=O)CN(C)C(=O)c2cn(-c3ccccc3)nc2-c2cccs2)cc1OCC,active: 18.4 µM,
CCc1nc2c(OCCC3CCCCC3)cccn2c1N(C)C(=O)c1ccc(OC)cc1,"inconclusive [inhibitor, single point]",
CCCC1=NN2C(=N)/C(=C\c3cc(C)n(-c4cc(C)cc(C)c4)c3C)C(=O)N=C2S1,"inconclusive [inhibitor, single point]",
N/C(Cc1ccc([N+](=O)[O-])cc1)=N\OC(=O)c1ccccc1Br,"inconclusive [inhibitor, single point]",
COc1cc(Br)c(C[N+]2(CCOCCC3CCC4CC3C4(C)C)CCOCC2)cc1OC (configuration not stated),active: 1.88 µM,
O=C(NCCC(NS(=O)(=O)OCC(Cl)(Cl)Cl)c1ccccc1)C(F)(F)F (configuration not stated),"inconclusive [inhibitor, single point]",
Cc1ccc(S(=O)(=O)N2CCN(c3ncccn3)CC2)cc1C,active: 5.8 µM,
O=C(NCCc1ccccc1)C(=O)NCC(c1ccc2c(c1)OCO2)N1CCOCC1 (configuration not stated),"inconclusive [inhibitor, single point]",
Cc1ccc(S(=O)(=O)N2CCC[C@H]2C(=O)OCc2cc(=O)oc3cc(C)ccc23)cc1,"inconclusive [inhibitor, single point]",
CCc1ccc(S(=O)(=O)/N=C2\C=C(Nc3ccc(C(=O)O)cc3)C(=O)c3ccccc32)cc1,active: 18.4 µM,
CCc1nnc(NC(=O)C2CC(=O)N(c3ccc4c(c3)OCCO4)C2)s1 (configuration not stated),"inconclusive [inhibitor, single point]",
CCCOc1cccc(-c2nn(-c3ccccc3)cc2/C=C(\C#N)C(=O)NCCCn2ccnc2)c1,"inconclusive [inhibitor, single point]",
CCOC(=O)N1CCN(C(=O)c2ccc3c(c2)NC(=O)/C(=C\c2ccc(OC)c(OC)c2)S3)CC1,"inconclusive [inhibitor, single point]",
